Assay results reported in the supplement of paper PMC11417369.
Some of the results follow.

Each sequence was assayed on PfSIP2 AP2 domain 1 (GST-tagged) (assay: gcPBM binding intensity (ln(normalized median fluorescence intensity)); higher = stronger DNA binding).
Procedure, shortened: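 DNA-binding domains from P. falciparum, fused to GST and produced in E. coli, were put on an Agilent 4 × 180k double-stranded probe array for 1 h in 1× PBS holding 1% milk, 0.2 mg/ml BSA, 0.5% salmon testes DNA and 0.03% Triton X-100. Probes were primer-extended, 36 bp long and drawn from intergenic genomic regions, with negative controls included. After Alexa488 anti-GST antibody detection and a 488 nm scan, binding intensity was set as the highest Masliner-normalised natural-log median intensity across replicate spots of either probe orientation.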

Sequence | gcPBM binding intensity (ln)
TATCCCTTAGAATACACACCCATATGAGTGTGAACT [CACACA_site7398] | 7
TGTTTTGTTTTTTGGGGTACATGTTTTGTATTATAT [XGTACX_site7997] | 7.55
AAGGCAAGCACTTAAACATGCATATAATAATATCAT [TGCATGCA_site698] | 7.36
ATAATATATATATATGCATGTACATATTTATCTTTA [TGCATGCA_site32] | 7.05
ATGTATTAAAAAAATTGTACTATAAAATGTAACCGC [XGTACX_site8083] | 7.12
AAAAAAAAAAAAAACATACACACAAATATATACATA [CACACA_site4010] | 7.19
ATATATATATATATATGTACATATATATATGTATAT [XGTACX_site3959] | 9.72
ATATTATTTTAAAGTACACACATATATTAATATATA [CACACA_site2315] | 7.38
TATACATACAGACCCACACACAAAAAAAAAAAAAAA [CACACA_site6536] | 7.08
TAATAATAATTATATACACACATGTATATTATATTT [CACACA_site1501] | 6.92
ATTTAAATATATTATTGTACATATACCTAATAAGAA [XGTACX_site6655] | 7.26
ACTCCTATATAAATGAACCATATTCATAATATATAT [CACACA_negctrl_site1636] | 7.08
AAATGAAAGAATTAAAGTACATTTATATAATTTTAA [XGTACX_site3540] | 6.59
AAGAGAAAAACATACACACACAACAAAATATGTATA [CACACA_site2719] | 6.96
TGTATAATATATATATGTACTTATGTATAATATTAT [XGTACX_site4328] | 7.08
AAGATATCTAAGGAAATTAAACTACCAAAATATATA [TGCATGCA_negctrl_site338] | 6.8
TGCATAAAAGTAAAAACATGCATGCCGTGGTATCTT [TGCATGCA_site664] | 6.73
GACATATAAATATACACACATACGTAAGTATATTAA [CACACA_site1790] | 6.91
TTTTTATGGATATTTATATTATATTATGATTAAAAA [TGCATGCA_negctrl_site204] | 6.83

Sequence | gcPBM binding intensity (ln)
AATAATACAAAAGTTCAACAAAAAAAAAAAAAAAAT [CACACA_negctrl_site952] | 6.8
CTTTATAATATTTGTTGTACACAAATATAACATATT [XGTACX_site709] | 7.36
AATATATTTATAAGCACACACTAATAAACACAGACA [CACACA_site4377] | 7.09
AAATATATATATATATATATATATGTGTGTGTATAT [GTGCAC_negctrl_site1] | 7.94
GTACATAATTATTATGCACACATATTTTTATGTATT [CACACA_site8132] | 7.24
ATAGTATCTGGTAGCTGTACGAGTCGTAGAGAGTAG [XGTACX_site2546] | 7.55
TTATTATTTCTTAGTAGTACTATATAATTTTTTTTT [XGTACX_site1847] | 6.73
ATATATCTGTATGGCACACACGGATAAATATATATA [CACACA_site4668] | 7.26
TGTATTTAGAAACATACACACATATTAAGTTTACAT [CACACA_site5689] | 6.97
TATATTTGTACATGATATTTTTTTTTTCTTTTAAAA [CACACA_negctrl_site754] | 6.74
GGAAAATTATCAATAGCATGCAAAATGTGAATATTA [TGCATGCA_site901] | 6.83
TTTCCTCATTTTATCATACACACTTATTTATATGTG [CACACA_site900] | 6.91
GCCAAAATATAATTTACACACTTATTAAATAATTAT [CACACA_site236] | 7.03
AGAATAATACAAAAATGTACATTAATAAAAAGATAG [XGTACX_site780] | 7.21
ATTGAATATGGATATGTGCACATATGTATATAAGTA | 8.97
AAAACATTGTTGAACTGTTTTATTTATAAATATAAG [XGTACX_negctrl_site393] | 7.02
ATATATATACTGTGTACACACATATGTATTTATATA [CACACA_site4600] | 7.69
TAATAACTACAAAAAAAAAAGAAAAATAGAAAAAGG [CACACA_negctrl_site1102] | 6.82
TCGTGTTAAACTTTTACACACAAACTTGCAATAATT [CACACA_site7745] | 7.02

Sequence | gcPBM binding intensity (ln)
TGCTTTATTATTTATTGTACATGTAAAATGAGAGAG [XGTACX_site2288] | 7.58
TTTGTTTAAATTAAATGTACATAAAGAATAATATAT [XGTACX_site5093] | 7.42
AATTATATGAAATAAACACACATATGTAATATTACA [CACACA_site1928] | 6.76
TTTCTTAAAATGTTATGTACATATTTCGTTTCAAAG [XGTACX_site6102] | 7.28
TCTTTTTAATTTATATGTACTTATATTAATTATAAG [XGTACX_site7524] | 7.15
TGAGCTTCAACAATATGTACATAAAATATATTACAT [XGTACX_site4763] | 7.09
TTAATAAAAGCCCATGCACACCTTAGAAAGTTTTAT [CACACA_site8003] | 7.37
GTATTATAGTATAATACACACCCAAATATTAAAAAG [CACACA_site7404] | 7.04
CGTTATATATGTATTACATGCAATATATGTACGTAA [TGCATGCA_site274] | 6.8
TAAATAATATCCCTTTGTACGTATTTTTTTTTATTA [XGTACX_site7303] | 6.84
GAAATAAGTTAAAATAGTACGTAGTGTTCCTTAAGT [XGTACX_site6557] | 6.94
TTAGGAAAACAAAAATGTACGCATATATATTATTGA [XGTACX_site8288] | 6.98
TTAAAAATAATATATTGTACACATACTTATTTTAAT [XGTACX_site1348] | 7.2
GTGCATATACAAATATGTACTTAAACGTTTTTTTTT [XGTACX_site7362] | 8.99
TTTTTCTTTTGATGTTGTACATATATATCATATAAT [XGTACX_site1189] | 7.12
GTTTATTCATCATACGGTACACATAAATAATATATA [XGTACX_site6931] | 7.39
AAGACTTCTCCATATACACACACCAACAAATATAAA [CACACA_site2779] | 7.21
GATGAATAAATCAAAGCACACATACACCCACATATA [CACACA_site7986] | 7.19
